# The list shows a part of the results. Many values rest on one well or one pass, so single values are uncertain.
# Test system: MZ2-MEL
# Assay: cell count relative to DMSO control; melanoma cells; higher = more viable cells
# Settings: library dose: low library concentration; 72 h
# 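Note: cell number obtained by counting DAPI-stained nuclei in high-throughput microscope images with image analysis software, screen run in 1,536-well plates.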
row,Compound,cell count [%]
1,"CC(C)C[C@H](NC(=O)[C@H](Cc1ccccc1)NC(=O)c1cnccn1)B(O)O [Bortezomib] + O=c1cc(-c2cccc3c2Sc2ccccc2S3)oc(N2CCOCC2)c1 [KU55933] (first compound 0.001 µM, partner dose 1 µM)",71.9
2,"COc1ccc(C2=N[C@@H](c3ccc(Cl)cc3)[C@@H](c3ccc(Cl)cc3)N2C(=O)N2CCNC(=O)C2)c(OC(C)C)c1 [Nutlin-3] + CN(C)S(=O)(=O)c1ccc2c(c1)/C(=C/c1cc3c([nH]1)CCCC3)C(=O)N2 [SU6656] (first compound 0.1 µM, partner dose 0.4 µM)",109
3,"Cc1cc(Nc2cc(N3CCN(C)CC3)nc(/C=C/c3ccccc3)n2)n[nH]1 + CCc1ccc(CCOc2ccc(CC3SC(=O)NC3=O)cc2)nc1 [pioglitazone] (first compound 0.04 µM, partner dose 2 µM)",101
4,"Cn1c(=O)n(-c2ccc(C(C)(C)C#N)cc2)c2c3cc(-c4cnc5ccccc5c4)ccc3ncc21 + O=C(Nc1ccccc1)c1cc([N+](=O)[O-])ccc1Cl [GW9662] (first compound 0.004 µM, partner dose 2 µM)",99.8
5,"Cc1cn(-c2cc(NC(=O)c3ccc(C)c(Nc4nccc(-c5cccnc5)n4)c3)cc(C(F)(F)F)c2)cn1 [nilotinib] + COc1cc2c(Oc3ccc4[nH]c(C)cc4c3F)ncnc2cc1OCCCN1CCCC1 [cediranib] (first compound 0.2 µM, partner dose 0.4 µM)",95.4

# Source: the supplement of paper PMC4604168 (melanoma cell lines)
